The values that follow come from PMC12136788.

Sequences and labels used below:
T1: UNK ZnF1-6 (called full-length) (human, UniProt Q9C0B0 30-357)
T1 sequence: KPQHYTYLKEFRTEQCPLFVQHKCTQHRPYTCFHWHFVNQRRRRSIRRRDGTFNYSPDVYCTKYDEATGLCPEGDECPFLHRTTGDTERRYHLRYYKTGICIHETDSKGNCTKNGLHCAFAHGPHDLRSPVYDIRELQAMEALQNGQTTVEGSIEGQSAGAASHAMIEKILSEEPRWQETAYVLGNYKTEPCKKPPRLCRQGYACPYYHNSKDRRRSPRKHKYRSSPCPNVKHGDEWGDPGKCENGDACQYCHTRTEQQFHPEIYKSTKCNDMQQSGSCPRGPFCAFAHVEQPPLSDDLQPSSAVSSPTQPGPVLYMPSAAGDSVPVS

B1: ENSG00000124766:be:win_1601|3pUTR|ENSG00000124766|bound_else_gene|NA|bound_elsewhere_windowed (ssRNA)
RNA: GGGAGUUCUACAGUCCGACGAUCCGUUUUGGACCCGCGCUCCCAUCCCCCACCUUCCCGGGCCGGGGACCCACUCUGCCCAGCCGGAGGGACGCGGAGGAGGAAGAGGGUAGACAGGGGCGACCUGUGAUUGUUGUUAUUGAUCAACAGAGGAUUGAGCAUCA
B2: ENSG00000115641:stop:overlap|stop_codon|ENSG00000115641|stop_codon|NA|stop_codon (ssRNA)
RNA: GGGAGUUCUACAGUCCGACGAUCCCAUCGGCUGUGACUGCAAGGUACCUGCUGCGGGCCUCUGCGGGUCCCCGGCGCUCCCCUAGGAAACACGGGUUUCUCUGUGGUUUGUGCUGAAGCCCUGAUCCACCACUGAAGUCUGUCCAACAGAGGAUUGAGCAUCA
B3: chr1:151249111:151249212:+|3pUTR|ENSG00000143398|unk|total|mutant (ssRNA)
RNA: GGGAGUUCUACAGUCCGACGAUCGCAGAUUGUUGAAUUCCUGUUCUAUCCCUUCUCUAUCCCACCCUGCCUUGAUAAUAUGUCCGCCCAUACCCCAAAUAACUGUCUAUAUCCGACACCCCCAGCCAGUUUCUGGCUGCCUGUCAACAGAGGAUUGAGCAUCA
B4: chr15:91915990:91916091:+|CDS|ENSG00000176463|msi1|FALSE|unique (ssRNA)
RNA: GGGAGUUCUACAGUCCGACGAUCGUCCUGACCACCCUGGAGCGUAGGUUCAACCUGCAGAGCGCUGACGUGGGUGUGAUCGCUAGCAGCUUCGAGAUCGGGAACCUGGCGCUCAUCCUCUUCGUGAGCUACUUCGGGGCACGCCAACAGAGGAUUGAGCAUCA
B5: chr20:63933867:63933968:+|3pUTR|ENSG00000101152|msi1|total|mutant (ssRNA)
RNA: GGGAGUUCUACAGUCCGACGAUCAUCAGAGUGGGCCCCUUGCCAGGUGGCUUUUCAGUUACAGAGUCCAGUGGACCAUUUUGCCGAACCAUGCAGCUCCCUGCGGAAGGUGGGGCCGGGUGGGAAAGAGGAGCAGGUCUGGAGCAACAGAGGAUUGAGCAUCA
B6: chr3:186538440:186538695:-|three_prime_utr|ENSG00000213139|control|control|control (ssRNA)
RNA: GGGAGUUCUACAGUCCGACGAUCACAUGAAUGGGGCCAUAUUCUUCCUGGGGCCCAAAUGCUGGCUGGCCUUGUGGUCCAAAUAGGCAUCAUCAAUAAAACAGUUGGCAUGCAUCCCACUGCUGACUAUAAUGCCUCUCCUUACAACAGAGGAUUGAGCAUCA
B7: ENSG00000136451:be:win_2801|3pUTR|ENSG00000136451|bound_else_gene|NA|bound_elsewhere_windowed (ssRNA)
RNA: GGGAGUUCUACAGUCCGACGAUCAGCAAUGAUUAUGCACGUUGAGACAUGUGCUUUUUAUUUCUUAGCAAGAUAUUUUAUCUCUGUACAUAAAGUAGAAACCAAAAGCUAGGGAAACAGAUACUCUUUACACCAUCAUGCCACCAACAGAGGAUUGAGCAUCA
B8: ENSG00000168297:stop:overlap|stop_codon|ENSG00000168297|stop_codon|NA|stop_codon (ssRNA)
RNA: GGGAGUUCUACAGUCCGACGAUCCUGGGGCCAGCUCACCUCUCACGUCCCCGUCAUCGCCAACUCCACCCUCUACAUCAGGUUAGUGAUGGAGUAAAGUGACAUGCCACCUUCCUGUCCGCCAACAGGAGGAGCGGGCUGUGCCAACAGAGGAUUGAGCAUCA
B9: chr9:116699486:116699595:+|CDS|ENSG00000119401|unk|total|mutant (ssRNA)
RNA: GGGAGUUCUACAGUCCGACGAUCUUCCGCUGCAUUGCUGGCAUGUGUGUGGAUGCUCGUGGUGAUCUCAUCGUGGCUGACAGCCGUCGCAAGGAAAUUCUCCAUUUUCCUAAGGGUGGGGGCUACCGUGUCCUUAUUCGAGAGCAACAGAGGAUUGAGCAUCA
B10: chr3:25596636:25596694:+|3pUTR|ENSG00000077092|msi1_unk|total|mutant (ssRNA)
RNA: GGGAGUUCUACAGUCCGACGAUCUCCCCAGUACCUUCAGUUCCAGGAUUUAAAAUGCAAGAAAAAACAUUUUUACUGCUGCUCCGUUUUUGGACUGAAAAGAUAUUAAAACUCAAGAAGGACCAAGAAGUUUUCAUAUGUAUCCAACAGAGGAUUGAGCAUCA
B11: chr17:67854386:67854487:+|CDS|ENSG00000171634|unk|total|mutant (ssRNA)
RNA: GGGAGUUCUACAGUCCGACGAUCAGAGGCAGAGGACUACCCAUAUGGACCAGCCGAGAACAAGAUCAAAGUUCUACAGUUUCCCGUCGAUCAGUUUCUUACAACAAAUAUUGCUCGAGAGGAAUUGAUGUCUGAAGGGGUGAUCAACAGAGGAUUGAGCAUCA
B12: ENSG00000136451:be:win_1601|3pUTR|ENSG00000136451|bound_else_gene|NA|bound_elsewhere_windowed (ssRNA)
RNA: GGGAGUUCUACAGUCCGACGAUCAAUAUUUACCAGCAACUUAACUUUUAGUUGAUUAAAGCAAAAAGUAAACCAUGAAAUUGGGAGAUUUUAUUACAUUAGUUAAUAAGAGUGUGGUAGCAUUUUUCUCCAAUUUGGCUGGGACAACAGAGGAUUGAGCAUCA
B13: chr2:32415436:32415554:+|CDS|ENSG00000115760|unk|total|mutant (ssRNA)
RNA: GGGAGUUCUACAGUCCGACGAUCUGGGACUUUGGUUCAGUGCUUGAGGCUGCCAAAGUUUGCAGAGGAGGAGAAUCUUUGUACCGACUCAAUAACUCCUUGUGCUGACGGAAUUCAUUUGUUGGCCGGACUGCGGACAUGCCCCAACAGAGGAUUGAGCAUCA
B14: chr1:205434884:205440924:-|three_prime_utr|ENSG00000281406|control|control|control (ssRNA)
RNA: GGGAGUUCUACAGUCCGACGAUCUGCCUGCUUCUGGCUGGGGCUUGGAGCAGGAAGCCGUGUGUGUAUCUUAAGUCUUGAUUUAGCCAGUGCUCUUCUCAGCCUGACUCUCACCCGAGGGCAUCAGCCUCCUGUGUGCCUCUCCAACAGAGGAUUGAGCAUCA

The other results are listed elsewhere or left out.

In this assay the target is T1, UNK ZnF1-6 (called full-length). As to the kind of experiment: nsRBNS (natural sequence RNA bind-n-seq); RBNS binding buffer (assumed for nsRBNS): 25 mM Tris pH 7.5, 150 mM KCl, 3 mM MgCl2, 0.01% Triton X-100, 500 ug/ml BSA, 20 U/ml SUPERase-In, 4 C; UNK is unkempt and MSI1 is Musashi-1; names of the RNAs are library labels; protein concentration not given here; high values mean tight binding.
Molecule B1 gave a binding signal of 0.94 enrichment R. Next, B2: 0.517 enrichment R; B3: 1.46 enrichment R. For B4 the value was 0.855 enrichment R; for B5, 1.03 enrichment R; for B6, 0.697 enrichment R.

B7 yielded a binding signal of 0.638 enrichment R. B8 showed a binding signal of 1.05 enrichment R. Turning to B9, the binding signal was found to be 0.747 enrichment R. Next, B10: 0.36 enrichment R; B11: 0.506 enrichment R. B12 came in with a binding signal of 0.712 enrichment R. In turn, B13 returned a binding signal of 0.831 enrichment R. Molecule B14 gave a binding signal of 0.745 enrichment R.
